Experimental data: PubChem BioAssay AID588855 (National Center for Advancing Translational Sciences (NCATS), 2011)
Screen size: about 410,000 compounds; about 5,000 (1.2%) were called active. Inconclusive results, whose numbers are uncertain, are shown with a selection of clear calls. Calls follow the shape of the dose curve; as a rule, active = well fitted inhibition curve with a large enough effect; inconclusive = small, poorly fitted or top-dose-only effect; inactive = no such curve, though single readings can be large or run the other way. Potencies beside an inconclusive call are fits to weak or partial responses and may not hold up.

experiment: qHTS for Inhibitors of TGF-b; settings: HepG2 CAGA-GFP TGF-b/SMAD3 reporter, GFP fluorescence, 18 h, TGF-beta stimulated, 500 pg/mL final; series mostly up to 46.1 µM; activity, negative = inhibition: at the top concentration; also: nearly all actives have a fitted effect of over 65% in size
In short: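 Smad-responsive CAGA-GFP expression was quantified in HEPG2 cells exposed to compounds and 500 pg/mL final TGF-beta for 18 h at 37 degrees C; unstimulated wells defined full inhibition.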
% is scaled to controls: 0 for no effect and ±100 for the full control effect; potency is read from the fitted curve at half-maximal effect; tags tell the direction and shape of the fitted curve.

Row | Compound | Potency | activity, negative = inhibition
1 | COc1ccc(C2CC(=O)Oc3c(C(C)C)ccc(C)c32)cc1 (stereo unspecified) | inconclusive: 22.4 µM [inhibitor, single point] | –
2 | COc1ccc(S(=O)(=O)N2CCCCCC2)cc1N(C)S(=O)(=O)c1ccc(C)cc1 | inconclusive: 10 µM [inhibitor, single point] | –
3 | CC(C)CNC(=O)c1ccccc1N(Cc1ccccc1)S(C)(=O)=O | – | inactive: -5.94%
4 | COc1ccc(NC(=O)Cn2c(=O)n(-c3ccccc3)c(=O)c3c4c(sc32)CCCC4)cc1 | – | inactive: -11.9%
5 | Cc1ccnc2nc(C(=O)OCC(=O)N(CC(C)C)C3CCS(=O)(=O)C3)nn12 (stereo unspecified) | – | inactive: 18.2%
6 | O=C(CNS(=O)(=O)c1cccs1)Nc1ccc2c(c1)OCCO2 | inconclusive: 3.55 µM [inhibitor, single point] | –
7 | COc1ccc(CNc2ccccn2)c(O)c1 | inconclusive: 2.24 µM [inhibitor, partial curve] | –
8 | Cc1cc(C)cc(Nc2cc(-c3ccccc3)nc(C)n2)c1 | inconclusive: 25.1 µM [inhibitor, partial curve, poor fit] | –
9 | CC(C)(C)c1ccc(OCCC(=O)Nc2ccc(N3CCOCC3)cc2N2CCOCC2)cc1 | inconclusive: 35.5 µM [inhibitor, single point] | –
10 | O=C(NCCc1ccccc1)[C@@H]1CC=C[C@@H]2CCN(C3CC3)C(=O)[C@@H]21 | – | inactive: -0.52%
11 | Cc1ccc(NC(=O)Cc2ccc(Cl)c(Cl)c2)cc1S(=O)(=O)N(C)C | inconclusive: 7.08 µM [inhibitor, partial curve, poor fit] | –
12 | O=C(NCc1ccc(Cl)cc1)c1cccc(NC(=O)c2ccccc2)c1 | inconclusive: 22.4 µM [inhibitor, single point] | –
13 | COc1cccc(-n2nc(-c3ccnn3-c3ccc(F)cc3)c(=O)n(C)c2=O)c1 | inconclusive: 1 µM [inhibitor, full curve, poor fit] | –
14 | CC1=NN(c2ccc(Cl)cc2)C(=O)/C1=C\c1cccn1-c1ccc(S(N)(=O)=O)cc1 | inconclusive: 25.1 µM [inhibitor, single point] | –
15 | COC(=O)CSc1ncnc2scc(-c3ccccc3)c12 | – | inactive: 19.7%
16 | CC(OC(=O)Cc1ccc(F)cc1)C(=O)NCc1ccc2c(c1)OCO2 (stereo unspecified) | inconclusive: 2.51 µM [inhibitor, full curve] | –
17 | COc1cccc(CN2CCC2(C)C(=O)Nc2cccc3cccnc23)c1F (stereo unspecified) | active: 10 µM | –
18 | O=C(CN1CCC(NC(=O)c2ccco2)CC1)Nc1cccc2ccccc12 | inconclusive: 1 µM [inhibitor, partial curve, poor fit] | –
19 | O=C(NC(=S)Nc1ccc(CN2CCOCC2)cc1)c1ccc([N+](=O)[O-])cc1Cl | – | inactive: 0.931%
20 | Cc1ccc(-n2nc3c(N4CCC(C(=O)N5CCCCC5)CC4)nnc(C)c3c2C)cc1 | inconclusive: 0.891 µM [inhibitor, full curve] | –
21 | CC(C1CC2CCC1C2)n1c(COc2ccccc2F)nnc1SCC(N)=O (stereo unspecified) | – | inactive: -0.325%
22 | CC(C)(C)c1ccc(CC(=O)N2CCC2(C)C(=O)NS(=O)(=O)c2cccc(OC(F)F)c2)cc1 (stereo unspecified) | – | inactive: 2.95%

Row | Compound | Potency | activity, negative = inhibition
23 | CCN(CC)S(=O)(=O)c1ccc(N2CCCC2)c(NS(=O)(=O)c2ccc(OC)cc2)c1 | inconclusive: 35.5 µM [inhibitor, single point] | –
24 | CN(c1ccccc1)S(=O)(=O)c1ccc(NC(=O)c2ccc(-c3ccccc3)cc2)cc1 | – | inactive: -19.3%
25 | O=C(CCSc1ccc(Br)cc1)c1ccc(O)cc1 | inconclusive: 35.5 µM [inhibitor, single point] | –
26 | CN(C(=O)c1cccc(NC(=O)Cc2ccc(NC(=O)C3CCCN(C(=O)C4CCCCC4)C3)cc2)c1)C1CCCC1 (stereo unspecified) | inconclusive: 22.4 µM [inhibitor, single point] | –
27 | CC(=O)/C(N=Nc1cc2c(c([N+](=O)[O-])c1C)C(C)(C)CC2(C)C)=C(\C)O | inconclusive: 8.91 µM [inhibitor, partial curve, poor fit] | –
28 | O=C(COC(=O)C1CCN(c2ccc(C(F)(F)F)cn2)CC1)c1ccc(F)cc1 | inconclusive: 6.31 µM [inhibitor, single point] | –
29 | CC(=O)c1cccc(S(=O)(=O)NCCCN2CCOCC2)c1 | – | inactive: 9.68%
30 | CCOc1ccc(NC(=O)CN2CCN(CC(=O)Nc3ccc(Cl)c(C(F)(F)F)c3)CC2)cc1 | inconclusive: 28.2 µM [inhibitor, single point] | –
31 | COc1ccccc1Cc1c(-c2ccc(Cl)cc2)nc2c(C)cc(Br)cn12 | active: 14.1 µM | –
32 | NS(=O)(=O)c1ccc(OC(=O)CNC(=O)OCc2ccccc2)cc1 | – | inactive: 2.38%
33 | COc1ccc(-c2cc(NCc3ccc(F)cc3)n3cnnc3n2)cc1 | inconclusive: 3.55 µM [inhibitor, partial curve, poor fit] | –
34 | CCCN1CCC(=O)N([C@H](CSc2ccc(C)cc2)CC(C)C)CC1 | inconclusive: 20 µM [inhibitor, single point] | –
35 | CC(C)CC1Nc2ncnc(N3CCCCC3)c2N(Cc2ccc(Br)cc2)C1=O (stereo unspecified) | inconclusive: 7.94 µM [inhibitor, partial curve, poor fit] | –
36 | Cc1ccc(NC(=S)N2CCCCCC2)c(C)c1 | – | inactive: -16.6%
37 | O=C(NCCCN1CCCCC1)c1ccc(CS(=O)c2ccc(Cl)cc2)o1 (stereo unspecified) | inconclusive: 35.5 µM [inhibitor, single point] | –
38 | CCOC(=O)C1CCCN(C(=O)c2ccc3c(=O)n(CCOC)c(=S)[nH]c3c2)C1 (stereo unspecified) | inconclusive: 31.6 µM [inhibitor, partial curve, poor fit] | –
39 | C=CCNC(=S)NNc1nc(Nc2ccccc2)nc(N2CCCCC2)n1 | inconclusive: 6.31 µM [inhibitor, full curve, poor fit] | –
40 | Cc1cc(C)cc(N2CC(c3nc(-c4ccccc4C)no3)CC2=O)c1 (stereo unspecified) | inconclusive: 35.5 µM [inhibitor, single point] | –
41 | CCOc1ccc2c(c1)ncn2Cc1ccccc1 | – | inactive: 0.992%
42 | CC(C)(C)OC(=O)NCCCC[C@H](NC(=O)c1[nH]cnc1C(=O)N[C@@H](Cc1ccccc1)C(=O)OCc1ccccc1)C(=O)OC(C)(C)C | inconclusive: 10 µM [inhibitor, partial curve, poor fit] | –
43 | Cc1[nH]n(-c2ccccc2)c(=O)c1/C=C1\C=NN=C1c1ccccc1 | inconclusive: 12.6 µM [inhibitor, single point] | –
44 | CCOC(=O)c1ccc(NC(=O)CN(c2ccc(C)cc2)S(=O)(=O)c2c(C)noc2C)cc1 | inconclusive: 22.4 µM [inhibitor, single point] | –

Row | Compound | Potency | activity, negative = inhibition
45 | CCOC(=O)c1ccc(CN(Cc2ccccc2)S(=O)(=O)c2ccc(C)cc2)cc1 | – | inactive: -17%
46 | CCCCCCCCNS(=O)(=O)CCNCCCC | inconclusive: 35.5 µM [inhibitor, single point] | –
47 | CCCCNC(=O)C(CC)Sc1nnc(-c2cccc(F)c2)c(-c2cccc(F)c2)n1 (stereo unspecified) | – | inactive: 18.4%
48 | CC(c1ccco1)N(C(=O)c1cc(Cl)cc(Cl)c1)c1ccccn1 (stereo unspecified) | inconclusive: 35.5 µM [inhibitor, single point] | –
49 | COc1ccc2oc(=O)cc(CN3CCN(c4ccc(F)cc4)CC3)c2c1 | inconclusive: 8.91 µM [inhibitor, partial curve, poor fit] | –
50 | COc1cc(Br)c(CNc2cc(C)ccc2C)cc1OC | inconclusive: 22.4 µM [inhibitor, single point] | –
51 | COC(=O)c1ccccc1Sc1ncnc2onc(C)c12 | inconclusive: 15.8 µM [inhibitor, partial curve, poor fit] | –
52 | Cc1ccc(S(=O)(=O)CNC(=S)c2cccc(C)c2)cc1 | inconclusive: 4.47 µM [inhibitor, full curve, poor fit] | –
53 | COc1cccc(NC(=O)C2CCN(S(=O)(=O)c3ccc4c(c3)NC(=O)C(C)S4)CC2)c1 (stereo unspecified) | inconclusive: 31.6 µM [inhibitor, partial curve, poor fit] | –
54 | Cc1onc(-c2ccccc2)c1C(=O)NCc1ccc2c(c1)OCO2 | – | inactive: 0.49%
55 | COc1ccc(C2c3cc(OC)c(OC)cc3CC3C(=O)OCC32)cc1OC (stereo unspecified) | – | inactive: 0.871%
56 | O=C(O)C1CCCCC1C(=O)NCCc1ccc(F)cc1 (stereo unspecified) | – | inactive: -0.84%
57 | c1ccc(-n2ncc3c(NCc4cccnc4)ncnc32)cc1 | inconclusive: 35.5 µM [inhibitor, single point] | –
58 | CC(C)(C)C(=O)C[n+]1ccccc1 | inconclusive: 35.5 µM [inhibitor, partial curve, poor fit] | –
59 | CCCCN(CCCC)C(=O)CN(C)S(=O)(=O)c1ccc2c(c1)c(=O)n(C)c(=O)n2C | inconclusive: 15.8 µM [inhibitor, single point] | –
60 | O=C(Nc1ccccc1)Nc1ncc([N+](=O)[O-])s1 | active: 3.16 µM | –
61 | CC(=O)/C(=C/N(C)C)C(=O)Nc1ccc(Cl)cc1Cl | inconclusive: 20 µM [inhibitor, single point] | –
62 | CCOC(=O)C1=C(C)N(Cc2ccccc2)C(=O)NC1c1ccc(OC)cc1 (stereo unspecified) | – | inactive: 2.22%
63 | Cc1cccc(-c2ccc3c(c2)C2CC3CCN2Cc2ccc3c(c2)OCO3)c1 (stereo unspecified) | inconclusive: 3.16 µM [inhibitor, partial curve, poor fit] | –
64 | Fc1ccc(-c2nnc(CSc3nnc4ccccn34)o2)cc1 | inconclusive: 35.5 µM [inhibitor, single point] | –
65 | CN(CC(=O)O/N=C(\N)c1ccc([N+](=O)[O-])cc1)S(=O)(=O)c1ccc2ccccc2c1 | inconclusive: 35.5 µM [inhibitor, single point] | –
66 | CN1c2ccccc2C(O)=C(C(=S)Nc2ccc(F)c(Cl)c2)S1(=O)=O | inconclusive: 35.5 µM [inhibitor, single point] | –
